Source: PubChem BioAssay AID493005 (National Center for Advancing Translational Sciences (NCATS), 2010)
Hit rate of the full screen: of about 340,000 compounds, fewer than 10 were called active. The shares of active, inactive and inconclusive entries below differ from those in the screen. Calls come from the whole dose curve; as a rule, active = well fitted inhibition curve with a large enough effect in the main read-out, with a control signal flat (not every such curve was filed as active); inconclusive = small, poorly fitted or top-dose-only effect, or effect the other way, or a change in a side signal; inactive = no such curve, though single readings can be large or run the other way. A potency beside an inconclusive call is a rough fit, not a confirmed value. “Side channel” marks fits to a control or component signal instead of the main read-out.
Potency is the fitted concentration of half-maximal effect; tags give direction and shape of the fitted curve or compound fluorescence and quenching.

The compounds below were run against Tumor susceptibility gene 101 protein (Homo sapiens) (UniProt Q99816) (assay: qHTS Assay for Iinhibitors of HIV-1 Budding by Blocking the Interaction of PTAP/TSG101). Conditions: Fluorescence polarization, FITC-PTAP peptide / Tsg101 binding; series mostly up to 115 µM.
Sequence of UniProt Q99816 (Q99816 whole entry, looked up, the tested form may be a part): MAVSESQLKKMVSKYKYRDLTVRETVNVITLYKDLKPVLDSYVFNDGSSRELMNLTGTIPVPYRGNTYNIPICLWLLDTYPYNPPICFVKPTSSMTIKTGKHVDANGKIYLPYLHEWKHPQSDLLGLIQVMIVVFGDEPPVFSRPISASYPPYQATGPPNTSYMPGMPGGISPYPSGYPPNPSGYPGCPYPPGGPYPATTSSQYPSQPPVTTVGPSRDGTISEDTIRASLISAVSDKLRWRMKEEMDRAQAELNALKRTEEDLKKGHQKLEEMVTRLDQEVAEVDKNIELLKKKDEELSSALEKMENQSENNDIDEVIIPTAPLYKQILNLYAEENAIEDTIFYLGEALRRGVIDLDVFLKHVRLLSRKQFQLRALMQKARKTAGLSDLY
Method in brief: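 Fluorescence anisotropy tracks displacement of a FITC-tagged PTAP peptide (50 nM) from the Tsg101 binding domain (10 uM), following a 20 min room-temperature incubation at pH 7.5.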
CN1C[C@@H]2C(c3ccccc3)C3(c4ccc(C#N)cc4)CC2(C3)[C@H]1c1ccccc1 (stereo partly drawn) was tested, and the Potency was “inactive”. For O=C(c1cccc(Br)c1)c1cn(-c2ccccc2)nc1C(=O)c1ccccc1, the Potency was “inactive”. With CCOc1ccc(S(=O)(=O)Nc2nc3ccccc3nc2-n2ccc(=NC(=O)c3ccccc3C)cc2)cc1 the Potency was inconclusive: 89.1 µM [fluorescent, side channel, single point]. In the case of COc1ccc(NS(=O)(=O)c2ccc3[nH]c(=O)[nH]c3c2)cc1OC, the Potency is reported as “inactive”. With COc1ccc(NC(=O)c2ccco2)cc1NC(=O)c1cccc(OC(C)C)c1 the Potency was “inactive”. With N#C/C(=C\c1ccc(N2CCCCC2)o1)C(=O)Nc1cccc(Br)c1 the Potency was inconclusive: 11.2 µM [fluorescent, side channel, full curve]. With COC(=O)c1cc(C)sc1NC(=O)CCc1ccccc1 the Potency was “inactive”. N#Cc1ccc(/C=C\c2nccc3c2[nH]c2ccccc23)cc1 was tested, and the Potency was inconclusive: 50.1 µM [fluorescent, side channel, partial curve, poor fit]. With O=C(O)c1cc(O)c2c(c1)C(=O)c1cccc(O)c1C2=O the Potency was inconclusive: 50.1 µM [fluorescent, side channel, partial curve, poor fit]. O=C(CCCn1nnc2ccccc2c1=O)N[C@H](C(=O)O)c1ccccc1 was tested, and the Potency was “inactive”. For O=C1CC(C(=O)Nc2ccc(Cl)cc2[N+](=O)[O-])C2(CCCCC2)O1 (stereo not drawn), the Potency was “inactive”. COc1ccc([N+](=O)[O-])cc1NC(=O)CCN1CCN(C)CC1 was tested, and the Potency was “inactive”. For O=c1oc2c(CN3CCCCC3)c(O)ccc2cc1-c1nc2ccccc2[nH]1, the Potency was inconclusive: 56.2 µM [fluorescent, partial curve, poor fit]. For Cc1cc(C)c(S(=O)(=O)/N=C2\C=C(Nc3ccc(C(=O)O)cc3)C(=O)c3ccccc32)c(C)c1, the Potency was inconclusive: 56.2 µM [fluorescent, side channel, partial curve, poor fit]. With C=CCc1cc(Cl)ccc1OCCNCCCOC the Potency was “inactive”. For COc1ccc(OC)c(CCNC(=O)CCc2nnc3ccc(N4CCOCC4)nn23)c1, the Potency was “inactive”. For C=CCNC(=O)C(C#N)c1nc2ccccc2nc1N1CCN(Cc2ccccc2)CC1 (stereo not drawn), the Potency was inconclusive: 44.7 µM [fluorescent, side channel, partial curve]. In the case of Cc1ccccc1C(=O)Nc1ccc(Br)cn1, the Potency is reported as “inactive”. With Cc1ccccc1C1CC(=O)Oc2cc(O)ccc21 (stereo not drawn) the Potency was inconclusive: 56.2 µM [fluorescent, partial curve, poor fit]. For CCOc1cc(/C=N\Nc2ccc([N+](=O)[O-])cc2)ccc1OCC(=O)Nc1ccc(C)c(C)c1, the Potency was inconclusive: 79.4 µM [fluorescent, side channel, partial curve, poor fit]. COc1ccc2cc(C(=O)N/N=C/c3sc4ccccc4c3O)ccc2c1 was tested, and the Potency was inconclusive: 2.82 µM [fluorescent, full curve, poor fit]. For COc1ccccc1N1CCN(C(=O)C2CCN(S(=O)(=O)c3ccc4c(c3)CC(C)N4C(=O)C3CC3)CC2)CC1 (stereo not drawn), the Potency was “inactive”. For O=C(c1ccccc1)N1N=C(c2ccccc2)CC1c1ccc2nccnc2c1 (stereo not drawn), the Potency was “inactive”. For CC/C(=N/Nc1cccc(C)c1)c1cnnc(SC)n1, the Potency was inconclusive: 56.2 µM [fluorescent, side channel, partial curve, poor fit]. For Cc1ccc(Nc2nc(N)nc(CSC(=S)N3CCOCC3)n2)c(C)c1, the Potency was inconclusive: 56.2 µM [fluorescent, side channel, partial curve, poor fit]. CCCCOc1ccc(-c2nnn(CC(=O)Nc3ncc(CC(=O)OCC)s3)n2)cc1 was tested, and the Potency was inconclusive: 31.6 µM [quencher, side channel, partial curve, poor fit]. With Cc1cc(C(=O)Nc2ccccc2C)n(-c2ccccc2)n1 the Potency was inconclusive: 89.1 µM [fluorescent, side channel, single point]. For O=C(C1=NN(c2ccccc2)C2C(=O)N(c3ccc(Cl)cc3)C(=O)C12)c1ccccc1 (stereo not drawn), the Potency was inconclusive: 79.4 µM [fluorescent, side channel, partial curve, poor fit]. In the case of CCc1ccc(/C=C2\Oc3c(ccc(O)c3CN3CCN(CCO)CC3)C2=O)cc1, the Potency is reported as inconclusive: 56.2 µM [fluorescent, side channel, partial curve, poor fit]. O=c1[nH]nc(-c2ccc(F)cc2)cc1Cc1ccc(F)cc1 was tested, and the Potency was inconclusive: 20 µM [fluorescent, side channel, full curve, poor fit]. With Cc1cc(C)n2nc3nc4c(cc3c2n1)CCCC4 the Potency was inconclusive: 79.4 µM [falling, partial curve, poor fit]. With Cc1ccc(C(=O)Oc2oc(-c3ccccc3)nc2C=Nc2ccc(N(C)C)cc2)cc1 the Potency was inconclusive: 50.1 µM [fluorescent, side channel, partial curve, poor fit]. In the case of CCC(C(=O)O)N1C(=O)/C(=C/c2cccn2C)SC1=S (stereo not drawn), the Potency is reported as inconclusive: 50.1 µM [fluorescent, partial curve, poor fit]. In the case of CCN1CCN(c2c(/C=C3\SC(=S)N(Cc4ccco4)C3=O)c(C)c(C#N)c(=O)n2C)CC1, the Potency is reported as inconclusive: 79.4 µM [fluorescent, side channel, partial curve, poor fit]. With N#Cc1cc2cc3ccccc3nc2n2c(=O)c3ccccc3nc12 the Potency was inconclusive: 70.8 µM [fluorescent, side channel, partial curve]. With CCCCCCN1C=CC=C/C1=C/C=C(C#N)C#N the Potency was inconclusive: 89.1 µM [fluorescent, single point]. Cc1[nH]c2ccc(C(=O)NCCCN3CCCCC3)cc2c1C was tested, and the Potency was “inactive”. In the case of CC(/C=C/c1ccc(N(C)C)cc1)=N/N=C1/NC(=O)CC(C(=O)Nc2ccc(Cl)cc2)S1 (stereo not drawn), the Potency is reported as inconclusive: 89.1 µM [fluorescent, side channel, single point]. O=C(N/N=C\c1c(O)ccc2ccccc12)c1ccc(S(=O)(=O)N2CCCCC2)cc1 was tested, and the Potency was inconclusive: 79.4 µM [fluorescent, side channel, partial curve]. With O=C1NN=C(c2ccccc2)CC1c1ccc(Cl)cc1Cl (stereo not drawn) the Potency was “inactive”. COc1ccc(C)cc1Nc1n[n+](-c2ccccc2)c(-c2ccc(N(C)C)cc2)s1 was tested, and the Potency was inconclusive: 79.4 µM [fluorescent, side channel, partial curve, poor fit]. In the case of CCC(C)Sc1ccc(-c2nc3ccc(C)cn3c2NCc2ccccc2)cc1OC (stereo not drawn), the Potency is reported as inconclusive: 35.5 µM [quencher, side channel, partial curve, poor fit]. Cc1oc(C)c2c(=O)ccc3c(c12)OC(N)=C(C#N)C3c1ccccc1Cl (stereo not drawn) was tested, and the Potency was inconclusive: 50.1 µM [fluorescent, side channel, partial curve, poor fit]. CCOC(=O)c1c(C(F)(F)C(F)(F)C(F)(F)C(F)(F)F)n[nH]c1C was tested, and the Potency was inconclusive: 44.7 µM [quencher, side channel, partial curve, poor fit]. In the case of N#Cc1cc(NC2CCCC2)c([N+](=O)[O-])cc1C#N, the Potency is reported as inconclusive: 89.1 µM [fluorescent, side channel, single point]. Cc1c(NC(=O)Nc2ccc(Cl)c(Cl)c2)sc(=S)n1C was tested, and the Potency was “inactive”. For Cn1c(N/N=C/c2cc3ccccc3nc2Cl)nc2ccccc21, the Potency was inconclusive: 50.1 µM [fluorescent, side channel, partial curve, poor fit]. For COc1ccccc1-[n+]1c(C)cc(/C=C2\Sc3ccccc3N2C)cc1C, the Potency was inconclusive: 56.2 µM [fluorescent, side channel, partial curve, poor fit]. CN1CCC2(CC1)C1CN(C)CC=C1C(C#N)=C(N)C2(C#N)C#N (stereo not drawn) was tested, and the Potency was inconclusive: 56.2 µM [fluorescent, partial curve, poor fit]. For COCCNC(=S)N/N=C/c1ccc(-c2ccc([N+](=O)[O-])cc2)o1, the Potency was inconclusive: 56.2 µM [fluorescent, side channel, partial curve, poor fit]. For CCN1C/C(=C/c2ccc(N3CCOCC3)cc2)C(=O)/C(=C/c2ccc(N3CCOCC3)cc2)C1, the Potency was inconclusive: 79.4 µM [fluorescent, side channel, partial curve]. For CN1/C(=C\C=C2/C(=O)Oc3ccccc3C2=O)C(C)(C)c2ccccc21, the Potency was inconclusive: 20 µM [fluorescent, side channel, full curve, poor fit]. Cc1ccc(Oc2cc(NC(=O)CCCn3nc([N+](=O)[O-])cc3C)cc([N+](=O)[O-])c2)cc1 was tested, and the Potency was “inactive”. With COc1ccc([N+](=O)[O-])cc1NC(=O)CSCc1ccccc1 the Potency was “inactive”. In the case of CN1CCc2c(sc(/N=C/c3cccs3)c2C(N)=O)C1, the Potency is reported as “inactive”. With CCN(CC)CCCC(C)n1c2nc(=O)[nH]c(=O)c-2nc2cc(Cl)ccc21 (stereo not drawn) the Potency was inconclusive: 22.4 µM [fluorescent, side channel, partial curve, poor fit]. For Cc1cc(O)c(C=Nc2ccc(N3CCOCC3)cc2)c(C)c1Cl, the Potency was inconclusive: 79.4 µM [fluorescent, side channel, partial curve]. Cc1c(N=N/C(C(=O)Nc2ccccc2)=C(/O)c2ccccc2)c(=O)n(-c2ccccc2)n1C was tested, and the Potency was inconclusive: 56.2 µM [fluorescent, side channel, partial curve, poor fit].
